Cell count data for 17 compounds are collected here from the supplement of paper PMC4604168 (melanoma cell lines).

Some of the results follow. Repeats are few or missing, and single values can be far off.

What all share (test): cell count relative to DMSO control; melanoma cells; higher = more viable cells
Conditions in all cases: library dose: low library concentration; 72 h

Test [1] deals with WM115.
In test [2] the test system is WM1716.
For test [3], the system named is WM1745.
Test [4] deals with WM3526.
For test [5], the system named is WM3619.
Test [6] deals with WM451Lu.
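Note: cell number obtained by counting DAPI-stained nuclei in high-throughput microscope images with image analysis software, screen run in 1,536-well plates.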

For `Cn1cnc2c(F)c(Nc3ccc(Br)cc3Cl)c(C(=O)NOCCO)cc21` [selumetinib] + O=c1cc(-c2cccc3c2Sc2ccccc2S3)oc(N2CCOCC2)c1 [KU55933] (first compound 0.015 µM, partner dose 1 µM), the cell count in test [1] was 85.4%; in test [2] it was 114%; in test [3] it was 102%; in test [4], 68%; in test [5], 75.7%; in test [6], 117%.
With `COc1cc([C@@H]2c3cc4c(cc3[C@@H](O[C@@H]3O[C@@H]5CO[C@@H](C)O[C@H]5[C@H](O)[C@H]3O)[C@H]3COC(=O)[C@H]23)OCO4)cc(OC)c1O` [etoposide] + Cc1cc(N2CCOCC2)cc2[nH]c(-c3c(NC[C@@H](O)c4cccc(Cl)c4)cc[nH]c3=O)nc12 [BMS536924] (first compound 0.02 µM, partner dose 0.2 µM), the cell count in test [1] turned out to be 97.5%; in test [2], 91%; in test [3] it was 79%; in test [4], 86.2%; in test [5] it was 81.4%; in test [6] it was 90.3%.
On to `C[C@]1(O)C[C@@H](c2nc(-c3ccc4ccc(-c5ccccc5)nc4c3)c3c(N)nccn32)C1` + O=c1cc(-c2cccc3c2Sc2ccccc2S3)oc(N2CCOCC2)c1 [KU55933] (first compound 0.4 µM, partner dose 1 µM), for which the cell count in test [1] turned out to be 103%; in test [2], 119%; in test [3], 91.7%; in test [4], 85.8%; in test [5] it was 94.8%; in test [6], 129%.
`Cn1cnc2c(F)c(Nc3ccc(Br)cc3Cl)c(C(=O)NOCCO)cc21` [selumetinib] + COc1ccc(Cl)c(Nc2nc3ccccc3nc2NS(=O)(=O)c2cccc(NC(=O)C(C)(C)N)c2)c1 [XL147] (first compound 0.015 µM, partner dose 0.8 µM): the cell count in test [1] amounted to 96.2%; in test [2] it was 102%; in test [3] it was 86.1%; in test [4], 82%; in test [5] it was 74.4%; in test [6], 95.2%.
Take `CCN(CC)CCNC(=O)c1c(C)[nH]c(/C=C2\C(=O)Nc3ccc(F)cc32)c1C` [sunitinib] + C#Cc1cccc(Nc2ncnc3cc(OCCOC)c(OCCOC)cc23)c1 [erlotinib] (first compound 0.4 µM, partner dose 0.8 µM): the cell count in test [1] was found to be 95.4%; in test [2] it was 123%; in test [3], 63.9%; in test [4], 90.2%; in test [5], 88.3%; in test [6], 86%.
For `Cn1cnc2c(F)c(Nc3ccc(Br)cc3Cl)c(C(=O)NOCCO)cc21` [selumetinib] + C[C@]1(O)C[C@@H](c2nc(-c3ccc4ccc(-c5ccccc5)nc4c3)c3c(N)nccn32)C1 [OSI906] (first compound 0.015 µM, partner dose 0.4 µM), the cell count in test [1] came out at 102%; in test [2], 106%; in test [3] it was 76.6%; in test [4], 58.6%; in test [5], 81.1%; in test [6], 86.4%.
For `Cn1cnc2c(F)c(Nc3ccc(Br)cc3Cl)c(C(=O)NOCCO)cc21` [selumetinib] + Oc1cc(-c2nc(-c3ccccc3)[nH]c2-c2ccncc2)ccc1Cl [L779450] (first compound 0.015 µM, partner dose 0.2 µM), the cell count was determined as 58.3% in test [1]; 116% in test [2]; 79.3% in test [3]; 50.6% in test [4]; 75.5% in test [5]; 80.7% in test [6].
Turning to `COc1cc([C@@H]2c3cc4c(cc3[C@@H](O[C@@H]3O[C@@H]5CO[C@@H](C)O[C@H]5[C@H](O)[C@H]3O)[C@H]3COC(=O)[C@H]23)OCO4)cc(OC)c1O` [etoposide] + CN1CCN(c2ccc3nc(-c4c(N)c5c(F)cccc5[nH]c4=O)[nH]c3c2)CC1 [Dovitinib] (first compound 0.02 µM, partner dose 0.1 µM), the cell count in test [1] stood at 82.8%; in test [2], 84.3%; in test [3], 89.9%; in test [4] it was 100%; in test [5], 88.5%; in test [6], 77.9%.
Regarding `Cn1cnc2c(F)c(Nc3ccc(Br)cc3Cl)c(C(=O)NOCCO)cc21` [selumetinib] + CC(=O)c1c(C)c2cnc(Nc3ccc(N4CCNCC4)cn3)nc2n(C2CCCC2)c1=O [palbociclib] (first compound 0.015 µM, partner dose 0.04 µM), the cell count amounted to 68.9% in test [1]; 72.3% in test [2]; 72.6% in test [3]; 68.2% in test [4]; 85.7% in test [5]; 77.2% in test [6].
With `COc1cc([C@@H]2c3cc4c(cc3[C@@H](O[C@@H]3O[C@@H]5CO[C@@H](C)O[C@H]5[C@H](O)[C@H]3O)[C@H]3COC(=O)[C@H]23)OCO4)cc(OC)c1O` [etoposide] + O=C(Nc1cccc(Cl)c1)Nc1ncc(CCNc2ncnc3ccsc23)s1 [SNS314] (first compound 0.02 µM, partner dose 0.0008 µM), the cell count was 58.4% in test [1]; 66.6% in test [2]; 96.1% in test [3]; 76.4% in test [4]; 88.5% in test [5]; 123% in test [6].
With `COc1cc([C@@H]2c3cc4c(cc3[C@@H](O[C@@H]3O[C@@H]5CO[C@@H](C)O[C@H]5[C@H](O)[C@H]3O)[C@H]3COC(=O)[C@H]23)OCO4)cc(OC)c1O` [etoposide] + O=C(Nc1ccccc1)c1cc([N+](=O)[O-])ccc1Cl [GW9662] (first compound 0.02 µM, partner dose 2 µM), the cell count in test [1] was 83.9%; in test [2] it was 78.7%; in test [3] it was 81.6%; in test [4] it was 78.9%; in test [5], 87%; in test [6] it was 106%.
For `COc1cc([C@@H]2c3cc4c(cc3[C@@H](O[C@@H]3O[C@@H]5CO[C@@H](C)O[C@H]5[C@H](O)[C@H]3O)[C@H]3COC(=O)[C@H]23)OCO4)cc(OC)c1O` [etoposide] + Cc1ccc(NC(=O)c2cccc(N(C)C)c2)cc1NC(=O)c1ccc(O)cc1 [ZM336372] (first compound 0.02 µM, partner dose 2 µM), the cell count in test [1] was determined as 102%; in test [2], 105%; in test [3], 88.1%; in test [4], 109%; in test [5] it was 93.2%; in test [6], 95.6%.
For `COc1cc([C@@H]2c3cc4c(cc3[C@@H](O[C@@H]3O[C@@H]5CO[C@@H](C)O[C@H]5[C@H](O)[C@H]3O)[C@H]3COC(=O)[C@H]23)OCO4)cc(OC)c1O` [etoposide] + NC(=O)c1ccc(N(C(N)=O)c2c(F)cccc2F)nc1-c1ccc(F)cc1F [VX702] (first compound 0.02 µM, partner dose 0.4 µM), the cell count in test [1] came to 97.8%; in test [2], 93.9%; in test [3], 117%; in test [4] it was 116%; in test [5] it was 99.5%; in test [6], 88.4%.
Regarding `Cn1cnc2c(F)c(Nc3ccc(Br)cc3Cl)c(C(=O)NOCCO)cc21` [selumetinib] + Oc1nc(-c2ccc(C(F)(F)F)cc2)nc2c1CSCC2 [XAV939] (first compound 0.015 µM, partner dose 2 µM), the cell count in test [1] came to 81.5%; in test [2], 69.9%; in test [3], 73.9%; in test [4] it was 83.4%; in test [5], 88.4%; in test [6] it was 102%.
With `Cn1cnc2c(F)c(Nc3ccc(Br)cc3Cl)c(C(=O)NOCCO)cc21` [selumetinib] + Cn1c(=O)n(-c2ccc(C(C)(C)C#N)cc2)c2c3cc(-c4cnc5ccccc5c4)ccc3ncc21 [NVP-BEZ235] (first compound 0.015 µM, partner dose 0.004 µM), the cell count in test [1] came out at 87.5%; in test [2], 103%; in test [3], 82.8%; in test [4], 77.2%; in test [5], 69.7%; in test [6], 95.1%.
As to `COc1cc([C@@H]2c3cc4c(cc3[C@@H](O[C@@H]3O[C@@H]5CO[C@@H](C)O[C@H]5[C@H](O)[C@H]3O)[C@H]3COC(=O)[C@H]23)OCO4)cc(OC)c1O` [etoposide] + O=C(O)[C@@H]1[O][Sb](=[O])([O][Sb]2(=[O])[O][C@H]([C@H](O)CO)[C@H](O)[C@H](C(=O)O)[O]2)[O][C@H]([C@H](O)CO)[C@@H]1O [stibogluconate] (first compound 0.02 µM, partner dose 2 µM), the cell count came to 83% in test [1]; 86.9% in test [2]; 85.3% in test [3]; 85.9% in test [4]; 92.5% in test [5]; 87.2% in test [6].
`COc1cc([C@@H]2c3cc4c(cc3[C@@H](O[C@@H]3O[C@@H]5CO[C@@H](C)O[C@H]5[C@H](O)[C@H]3O)[C@H]3COC(=O)[C@H]23)OCO4)cc(OC)c1O` [etoposide] + COc1cc(N2CCC(N3CCN(C)CC3)CC2)ccc1Nc1ncc(Cl)c(Nc2ccccc2S(=O)(=O)C(C)C)n1 [NVP-TAE684] (first compound 0.02 µM, partner dose 0.08 µM): the cell count in test [1] was determined as 82.9%; in test [2] it was 79.6%; in test [3], 80.7%; in test [4], 87.3%; in test [5], 109%; in test [6] it was 71.7%.
